# Laboratory results from PubChem BioAssay AID1671194 (National Center for Advancing Translational Sciences (NCATS), 2021).
# About 240 (0.17%) of roughly 140,000 compounds were called active. The shares of active, inactive and inconclusive entries below differ from those in the screen. Calls come from the whole dose curve; as a rule, active = well fitted inhibition curve with a large enough effect; inconclusive = small, poorly fitted or top-dose-only effect; inactive = no such curve, though single readings can be large or run the other way. Potencies of inconclusive entries are doubtful fits and often do not repeat.
# Assay: Primary qHTS assay for inhibitors of alpha-synuclein gene (SNCA) expression; note: nearly all actives have a fitted effect of over 45% in size
# Details: HEK-293 SNCA-luciferase knock-in, luminescence, 24 h; series mostly up to 57.2 µM
# Potency is the fitted concentration of half-maximal effect; tags give direction and shape of the fitted curve.
row,SMILES,Potency
1,COc1ccc(CCNC(=O)CCc2c(C)nc3cc(-c4ccccc4OC)nn3c2C)c(OC)c1,"inconclusive: 22.4 µM [inhibitor, single point]"
2,CN1c2cc(C(=O)Nc3ccc(C#N)cc3)ccc2C(=O)N2CCCCC21 (configuration not stated),"inconclusive: 39.8 µM [inhibitor, single point]"
3,O=C(Cc1ccc(F)cc1)NC1CCN(c2cc(-c3ccc(F)cc3)[nH]n2)CC1,"inconclusive: 1.78 µM [inhibitor, single point]"
4,CNC(=O)C1CCC(Cn2c(=O)c3sccc3n(CC(=O)NCc3cccc(OC)c3)c2=O)CC1 (configuration not stated),"inconclusive: 3.98 µM [inhibitor, single point]"
5,CCOC(=O)c1ccc(NC(=O)CN2c3ccccc3S(=O)(=O)c3ccccc32)cc1,"inconclusive: 39.8 µM [inhibitor, single point]"
6,COc1ccc(C(=O)N2C(C(=O)NC(C)C)COC23CCN(C(=O)c2ccc(F)cc2)CC3)cc1 (configuration not stated),inactive
7,CCc1ccc(CN2CCC([C@@H]3CNC[C@H]3CO)CC2)cc1,"inconclusive: 39.8 µM [inhibitor, single point]"
8,Cc1ccsc1C(=O)Nc1ccc2c(N3CCCCC3)ncnc2c1,inactive
9,O=C(NCC(=O)N1CCOCC1)c1ccc(-c2cccc(C(F)(F)F)c2)cc1,inactive
10,COC[C@H]1C[C@@H](NC(=O)c2cc(C)on2)[C@H](O)[C@@H]1O,"inconclusive: 3.98 µM [inhibitor, full curve, poor fit]"
11,Cc1cccc(C(=O)N2CCCC(c3noc(-c4cc5c(=O)[nH]c(C)cn5n4)n3)C2)c1 (configuration not stated),"inconclusive: 8.91 µM [inhibitor, single point]"
12,O=C(N[C@H]1CCN2C(=O)c3cc(Br)ccc3NC(=O)[C@@H]2C1)c1ccco1,inactive
13,CCCCOc1ccc(CNC(=O)c2cc3n(n2)CCCN(Cc2ccc(C)cc2)C3=O)cc1,"inconclusive: 39.8 µM [inhibitor, single point]"
14,O=C(NCCc1ccc(F)cc1)C1CCCN1Cc1ccc(-c2cncnc2)cc1 (configuration not stated),"inconclusive: 22.4 µM [inhibitor, single point]"
15,CCOc1cccc(CNC(=O)C2CCCN(c3cnc4nc(C)c(C)nc4c3)C2)c1 (configuration not stated),"inconclusive: 12.6 µM [inhibitor, partial curve, poor fit]"
16,Clc1ccc(CCNC(c2nnc(-c3ccccc3)o2)c2ccccc2Cl)cc1 (configuration not stated),"inconclusive: 39.8 µM [inhibitor, single point]"
17,CC(C)N1CCC(Cc2ccc(CCNC(=O)c3cccs3)cc2)CC1,inactive
18,CCc1noc([C@@H]2CC(F)(F)CN2C(=O)C2CCNCC2)n1,"inconclusive: 5.62 µM [inhibitor, partial curve]"
19,COc1ccc2[nH]cc(CCNC(=O)c3c(-c4ccccc4)cc(=O)n4c3CCCC4)c2c1,inactive
20,Cc1ccccc1S(=O)(=O)N1CCC2(CC1)CC(OCC1CC1)CCO2 (configuration not stated),"inconclusive: 2 µM [inhibitor, partial curve, poor fit]"
21,Cn1ccc(NC(=O)[C@@H]2C[C@H](c3ccc(F)cc3)N(Cc3ccccc3Cl)C2)n1,inactive

row,SMILES,Potency
1,O=C(NC1C[C@H]2CC[C@@H](C1)N2C(=O)CC1CCCC1)c1ccncc1 (some centres not stated),inactive
2,COc1cccc(C2C(C(=O)Nc3ccccc3OC)=C(C)Nc3nc4ccccc4n32)c1 (configuration not stated),"inconclusive: 4.47 µM [inhibitor, full curve, poor fit]"
3,Cc1cc(C)c(CNC(=O)c2nc(-c3cccc(O)c3)cc3[nH]ccc23)c(=O)[nH]1,inactive
4,COCCCn1c(=O)c(C(=O)NCc2ccc(C(F)(F)F)cc2)nc2cccnc21,inactive
5,c1nc2nc(Nc3ccc(N4CCOCC4)cc3)nc(NC3CCCCC3)c2[nH]1,"inconclusive: 27.1 µM [inhibitor, partial curve, poor fit]"
6,O=C(N[C@H]1C[C@H]2C(=O)Nc3ccc(-c4cccs4)cc3C(=O)N2C1)c1ccccc1,"inconclusive: 35.5 µM [inhibitor, single point]"
7,CCCn1c(C)c(CC(=O)N[C@@H](C)C(N)=O)c2c1CC(C)(C)CC2=O,"inconclusive: 0.708 µM [inhibitor, full curve]"
8,COCC(=O)N(C)Cc1ccc(-c2ccccc2)cc1,inactive
9,O=C1Nc2ccccc2C12CN(Cc1ccsc1)C2,inactive
10,Cn1nc(C2CCN(C(=O)c3ccc4ncccc4c3)CC2)c2c1CCOC2,inactive
11,CN(CCC(O)c1ccccc1)c1nccc(-c2cccnc2)n1 (configuration not stated),"inconclusive: 8.91 µM [inhibitor, full curve, poor fit]"
12,COCCC(=O)N1CCC2(CC1)C(OC)CN2c1cccc(F)c1 (configuration not stated),"inconclusive: 15.8 µM [inhibitor, partial curve, poor fit]"
13,Cn1c(=O)c2c(-c3ccccc3)n3c4ccccc4nc(-c4ccccc4)c3c2n(C)c1=O,"inconclusive: 2.51 µM [inhibitor, single point]"
14,CCOc1cccc(C(=O)Nc2ccc(S(=O)(=O)N(Cc3ccccc3)c3ccccc3)cc2)c1,"inconclusive: 14.1 µM [inhibitor, single point]"
15,Cc1ccc(Cc2c(C)nc3nc(SCC(=O)NC(C)c4ccccc4)nn3c2C)cc1 (configuration not stated),"inconclusive: 39.8 µM [inhibitor, single point]"
16,CN(Cc1ccccc1)C(=O)C[C@@H]1c2nc(NC(=O)CC(C)(C)C)sc2C[C@@H]2[C@](C)(CO)[C@H](O)CC[C@]21C,"inconclusive: 39.8 µM [inhibitor, single point]"
17,Cc1csc(S(=O)(=O)N2CCCC3(CCC(=O)N(CC4CC4)C3)C2)c1 (configuration not stated),"inconclusive: 39.8 µM [inhibitor, single point]"
18,Cc1ccc(-c2nc(C(=O)N3CCN(c4ccccc4)CC3)no2)cc1,inactive
19,O=C(NCc1ccc(F)cc1F)C1CCCCN1Cc1ccc(-c2ccsc2)cc1 (configuration not stated),inactive
20,COc1ccc(CN2CC[C@H]3CN(C)CC[C@H]3CC2=O)cc1,"inconclusive: 20 µM [inhibitor, partial curve, poor fit]"
21,COc1ccc(OC)c(NC(=O)N2CCc3nc(-c4ccccc4)[nH]c3C2)c1,"inconclusive: 3.55 µM [inhibitor, single point]"
